One series is described as follows: Solubility. The class given is physicochemical. Particulars: over PVP-037.1.
Series [1] is classed as in vivo, C57BL/6J mice. Particulars: mouse, single intravenous administration, up to 8 hours post-administration; relative to PVP-037.1.
The subject of another series is C57BL/6 adult mice. The class given is in vivo. Particulars: 100 nmol/mouse IM with rHA, 28 days post-immunization.
The test system of a further series is Balb/c adult mice. Kind of series: Spike immunization in Balb/c mice, Spike-specific IgG and IgG1 by ELISA. It counts as in vivo, mouse. The settings on record: 100 nmol IM with Spike 1 μg, Days 0, 14 and 28. A general note: An ELISA detects its analyte on a solid surface through an enzyme-linked reagent.
A short description of series [2]: Body weight after vaccination. The class given is in vivo, C57BL/6 mice. The settings on record: 6-8 weeks old mice, rHA admixed with 100 nmol IM, up to 3 days post vaccination.
A further series concerns human PBMCs. Put plainly: TNF production in human PBMCs after pre-treatment with TLR antagonists. The class given is cell-based.
Series [3] has as its system bone marrow derived macrophages (BMDM). Kind of series: TNF production in bone marrow derived macrophages from WT and TLR7−/− mice. The settings on record: 20-24 hrs. The class given is cell-based, mouse.
In the next series the test system is WT or TLR7−/− mice. The class given is in vivo, mouse. The settings on record: single dose 100 nmoles IM with rHA, 28 days post-immunization; TLR7−/− vs WT.

The values below come from patent US20260216325A1, “NOVEL IMIDAZOPYRIMIDINE COMPOUND AND USES THEREOF” (The Children's Medical Center Corporation, priority 2023, published 2026).

`Cc1cnc2nc(-c3ccc(C)c(NC(=O)c4ccc(CN)cc4C(F)(F)F)c3)cn2c1` [Compound (1), 4-(Aminomethyl)-N-(2-methyl-5-(6-methylimidazo[1,2-a]pyrimidin-2-yl)phenyl)-2-(trifluoromethyl) benzamide]: the solubility entry in the series “Solubility” is given as “improved solubility”. Moreover, in series [1], the “clearance from blood plasma” value was “enhanced clearance”. For the same compound, in the series on C57BL/6 adult mice (prime only, vs rHA alone), the “anti-rHA IgG titers” value is given as “increased”. Further, in the series on C57BL/6 adult mice (single immunization), the “antigen-specific (rHA) IgG1 production” value was “significantly enhance” and the “antigen-specific (rHA) IgG2c production” value is listed as “significantly enhance”. The “adjuvanticity (Spike-specific IgG and IgG1)” value in the series on Balb/c adult mice is given as “robust adjuvanticity”. The body weight change entry in series [2] is recorded as “maintained normal weight gains”. Further, the body weight change entry in series [2] (listed as PVP-037.2) is “No significant differences”. In addition, the “activity (TNF) after treatment with ODN 2088 (TLR7/8/9 antagonist)” value in the series with human PBMCs (human PBMC, antagonist 1 hr, supernatants after 20-24 hrs) was “near total loss of activity”. The “induced TNF production with ODN 20958 (TLR7 specific antagonist)” value with human PBMCs (human PBMCs, antagonist 1 hr, supernatants after 20-24 hrs) is listed as “completely blocked”. The “induced cytokine production with CU-CPT9a (selective TLR8 inhibitor)” value in the series on human PBMCs (human PBMCs, not shown) is on record as “did not affect”. Besides, in series [3] (100 μM, ELISA), the “TNF production in BMDM” value was “induced TNF production”. In addition, the “TNF response in BMDM from TLR7−/− mice versus WT” value in series [3] (PVP compounds 100 μM, LPS 100 ng/mL) is “significantly reduced”. The “rHA-specific IgG2c class switched Ab response in TLR7−/− mice” value in the series on WT or TLR7−/− mice is reported as “significant reduction”.
